Measured values from PubChem BioAssay AID624296 (National Center for Advancing Translational Sciences (NCATS), 2012).
Out of some 350,000 compounds screened, about 9,900 (2.8%) were called active. The inconclusive results got no clear call from the source; some entries with a clear call stand among them for comparison. The call rests on the fitted dose curve; in most records, active means well fitted activation curve with a large enough effect; inconclusive means small, poorly fitted or top-dose-only effect; inactive means no such curve, though single readings can be large or run the other way. No potency is given beside an inconclusive call; the fits are too rough.

assay: A quantitative high throughput screen for small molecules that induce DNA re-replication in MCF 10a normal breast cells.; further: nearly all actives have a fitted effect of over 50% in size; on activity, positive = re-replication: % of control where 0% means no effect; conditions: MCF 10A DNA re-replication, Hoechst nuclear intensity, 48 h; activity, positive = re-replication: at 46.1 µM (top of the series)
Potency means the concentration at half of the fitted maximal effect; tags describe the fitted curve by direction and shape.

| Structure (SMILES) | Potency | activity, positive = re-replication |
| --- | --- | --- |
| COc1ccc(N=c2oc3c(OC)cccc3cc2C(=O)NCc2ccco2)c(OC)c1 | inconclusive [activator, partial curve] |  |
| O=C(c1ccco1)N1CCN(c2nc(C3CC3)nc3sc4c(c23)CCCC4)CC1 | inactive |  |
| CCOC(=O)N1CCN(C(=O)c2cccc(N3C(=O)NC4CC3(C)Oc3ccc(Cl)cc34)c2)CC1 (stereo unspecified) | active: 16.4 µM |  |
| COc1ccccc1CNC(=O)c1cn(C)c(=O)c2cc(OC)c(OC)cc12 | inconclusive [activator, single point] |  |
| Cc1cccc(-c2noc(CN(C(=O)/C=C/c3ccccc3Cl)C(C)C)n2)c1 | inconclusive [activator, partial curve, poor fit] |  |
| Cc1nn(-c2ccccn2)c2nc(-c3cccs3)cc(C(=O)N3CCOCC3)c12 | inconclusive [activator, single point] |  |
| CCc1ccc(/C=C\C(=O)N2CCc3ccccc3C2)cc1 | inactive |  |
| CCSc1nnc(NC(=O)C(C(F)(F)F)C(F)(F)F)s1 | inconclusive [activator, single point] |  |
| O=S(=O)(CCc1ccccc1)N1CCOCC1 | inconclusive [activator, single point] |  |
| CCOC(=O)c1nn(-c2ccc(F)cc2)c(=O)cc1OCC(=O)N1CCN(c2ccccc2)CC1 | inactive |  |
| O=C(c1cc(C2CC2)nc2ccc(Br)cc12)N1N=C(C(F)F)CC1(O)C(F)F (stereo unspecified) | inconclusive [activator, partial curve, poor fit] |  |
| O=C(NCCCO)c1cc2ccccc2[nH]1 | inactive |  |
| CC(=O)N1CCN(C(=O)c2ccc(NS(=O)(=O)c3ccc4[nH]c(=O)[nH]c4c3)cc2)CC1 | inconclusive [activator, single point] |  |
| CC(C)(C)C1=CC(O)(c2ccccc2)C=C(C(C)(C)C)C1=O | active: 5.17 µM |  |
| OC[C@H]1O[C@@H](n2cnc3c(Nc4ccccc4)ncnc32)[C@H](O)[C@@H]1O | inconclusive [activator, full curve, poor fit] |  |
| NC(=S)N=Nc1c(O)[nH]c2c(Cl)cc(Cl)cc12 | inconclusive [activator, partial curve, poor fit] |  |
| CCSC1=NSC2=NC(=O)/C(=C\c3coc4ccccc4c3=O)C(=N)N12 | active: 18.4 µM |  |
| CCc1ccc(CNCc2ccc(OCC(O)CN(C)Cc3ccccc3)cc2)nc1 (stereo unspecified) | inconclusive [activator, single point] |  |
| CN(Cc1ccccc1NCC(=O)Nc1ccccc1C#N)C1CCCCC1 | inactive |  |
| CSC[C@@H]1NC(=S)N(c2ccc(C)cc2)C1=O | inactive |  |
| O=C(N/N=C/c1cc(Cl)cc([N+](=O)[O-])c1O)c1cc(-c2ccccn2)nc2ccccc12 | inactive |  |
| Cc1cc(NC(=O)c2cnn3c(C(F)F)cc(-c4ccccc4)nc23)no1 | inconclusive [activator, partial curve, poor fit] |  |
| COc1cc(/C=C/CNC[C@H]2O[C@@H](n3cnc(C(N)=O)n3)[C@H](O)[C@@H]2O)ccc1O | inactive |  |
| CC(NC(=O)C1CCN(C(=O)c2cccs2)CC1)c1ccc(S(N)(=O)=O)cc1 (stereo unspecified) | inactive |  |

| Structure (SMILES) | Potency | activity, positive = re-replication |
| --- | --- | --- |
| CCCCNc1nc2sc3c(c2c(=O)n1-c1cccc(Cl)c1)CCN(C)C3 | inconclusive [activator, single point] |  |
| C/C(=N\NS(=O)(=O)c1ccc(Br)cc1)c1ccncc1 | inactive |  |
| COc1ccc(CCNc2ncnc3cc(OC)c(OC)cc23)cc1OC | inactive |  |
| COc1ccc(C(=O)NC(=S)Nc2cccc(S(=O)(=O)N3CCOCC3)c2)cc1 | active: 16.4 µM |  |
| COc1cc(/C=N/Nc2nc(N3CCCC3)nc(N3CCCC3)n2)ccc1O | inconclusive [activator, single point] |  |
| COCc1ccc(CN2CCC(C(=O)Nc3cccc(-c4cccc(Cl)c4)c3)CC2)o1 | inconclusive [activator, single point] |  |
| CCc1c(C(=O)Nc2ncn(Cc3cccc(C)c3)n2)csc1C | inactive |  |
| CCCOc1cccc(C(=O)Nc2ccc(CN3CCOCC3)cc2)c1 | active: 20.6 µM |  |
| CCCCCCOc1ccc(N2C(=O)CC(N3CCN(CCN=CC4C(=O)CC(C)(C)CC4=O)CC3)C2=O)cc1 (stereo unspecified) | inconclusive [activator, full curve, poor fit] |  |
| C(COC1CC2CC1C1C2CC2OC21)OC1CC2CC1C1C2CC2OC21 (stereo unspecified) | inconclusive [activator, partial curve, poor fit] |  |
| Cc1ccc(Sc2nc3ccc(C)cn3c(=O)c2/C=N/O)cc1 | active: 16.4 µM |  |
| Cc1ccc(C)c(OCCC(=O)OCC(=O)N2CCN(S(=O)(=O)c3ccc(Cl)cc3)CC2)c1 | inconclusive [activator, single point] |  |
| O=C(Nc1ccc(Cl)cc1)c1nc[nH]c1C(=O)NCc1ccccc1 | inconclusive [activator, partial curve] |  |
| O=C(CCNS(=O)(=O)c1ccccc1Cl)N1CCN(c2ccccn2)CC1 | inactive |  |
| CCC(C)(C)c1nnc(NC(=O)C2CC(=O)N(CCc3ccc(F)cc3)C2)s1 (stereo unspecified) | inactive |  |
| CC(OC(=O)/C=C/c1ccccc1)C(=O)Nc1cccc(C#N)c1 (stereo unspecified) | inconclusive [activator, single point] |  |
| CC[C@]12c3[nH]c4cc(CCC(=O)N(C)C)ccc4c3CCN1C(=O)[C@@H](CC(=O)NCCCn1ccnc1)C[C@@H]2C(=O)N1CCN(C(=O)C2CC2)CC1 | inactive |  |
| C[C@@H](C(=O)NC1CCN(Cc2ccccc2)CC1)N1C(=O)N2CCc3c([nH]c4ccccc34)[C@@]2(C)C1=O | inconclusive [activator, full curve, poor fit] |  |
| COc1cccc(NC(=O)CSc2nnc3c(n2)[nH]c2ccc(C)cc23)c1 |  | inconclusive: 61% [activator] |
| Cc1[nH]c2ccc(-c3nnc(SCC(=O)c4ccc(F)cc4)o3)cc2c1C | inactive |  |
| Cc1nc(-c2ccccn2)sc1C(=O)Nc1ccc(F)cc1 | inconclusive [activator, full curve, poor fit] |  |
| COC(=O)c1ccccc1NC(=S)NC(NC(=O)COc1ccccc1)C(Cl)(Cl)Cl (stereo unspecified) | inconclusive [activator, single point] |  |
| COc1ccccc1CN(C)C(=O)c1cc(C)nc2ccccc12 | inconclusive [activator, single point] |  |
| COc1ccc(NC(=O)C(=O)N/N=C\c2ccc(CNC(=O)C(=O)Nc3ccc(C)c(C)c3)o2)c(OC)c1 | inconclusive [activator, full curve, poor fit] |  |

| Structure (SMILES) | Potency | activity, positive = re-replication |
| --- | --- | --- |
| CCN(C(=S)Nc1ccc(OC(F)F)cc1)C1CCCCC1 | inactive |  |
| COc1ccc(-c2nc(CN(C)C(C)c3ccon3)c(C)o2)c(C)c1C (stereo unspecified) | inconclusive [activator, single point] |  |
| Clc1ccccc1OCCCOc1cccc2cccnc12 | inactive |  |
| CCn1c2c(c3cc(C(=O)O)ccc31)CCCC2=O | inconclusive [activator, single point] |  |
| N#Cc1ccc(-c2cccs2)nc1SCc1cccnc1 | active: 0.411 µM |  |
| CC(=O)N/C(=C/c1ccccc1)c1ccccc1 | inactive |  |
| CCOc1cc(/C=N/NC(=O)c2nn(C)cc2Br)ccc1OCc1ccccc1 | inactive |  |
| CCOC(=O)C1(CCOC)CCN(C/C=C/c2ccccc2OC)CC1 | inactive |  |
| Cc1cccc(OCC(=O)NNC(=O)c2ccc3nc[nH]c3c2)c1 | inactive |  |
| O=C1CS/C(=C/C(=O)c2cccc(Cl)c2)N1 | inactive |  |
| O=C(Cc1csc(-c2ccc(F)cc2)n1)Nc1cccc(S(=O)(=O)NC2=NCCC2)c1 | inactive |  |
| CC(=O)Oc1ccc(-c2cccc(C(=O)Oc3ccccc3)c2)cc1 | inconclusive [activator, single point] |  |
| CCN1CCN(c2ccc(S(=O)(=O)N3CCCCC3)cc2NC(=O)Cc2ccc(Cl)c(Cl)c2)CC1 | inconclusive [activator, partial curve, poor fit] |  |
| Cc1nn(Cc2ccc(Cl)cc2)c(C)c1NC(=O)c1ccc([N+](=O)[O-])cc1 | inactive |  |
| COc1ccc(C(=O)NC(C(=O)N2CCN(c3ccccc3O)CC2)C(C)C)cc1 (stereo unspecified) | inactive |  |
| COc1cc(/C=C/C(=O)N2CCN(c3n[nH]c(=O)[nH]c3=O)CC2)cc(OC)c1OC | inconclusive [activator, single point] |  |
| CCc1cc(=O)oc2cc(OC(C)C(=O)NCCCn3ccnc3)ccc12 (stereo unspecified) | inconclusive [activator, partial curve, poor fit] |  |
| CNC(=O)/C=C/c1cc(C(=O)c2ccc(Cl)cc2Cl)cn1C | inconclusive [activator, partial curve, poor fit] |  |
| Cc1ccc(NC(=O)COc2ccc3oc4c(c3c2)CCCC4)nc1 | inconclusive [activator, full curve] |  |
| CCCCc1cc(=O)oc2c(C)c(OCc3nn[nH]n3)ccc12 | inconclusive [activator, single point] |  |
| CCOC(=O)CSC1=C(C#N)C(c2ccc(C)s2)CC(=O)N1 (stereo unspecified) | inconclusive [activator, single point] |  |
| Cc1ccc(-c2csc(=S)n2CC(=O)OCC(=O)NCc2ccco2)cc1 | inconclusive [activator, partial curve] |  |
| O=C(CSCc1ccc(Cl)cc1)Nc1ccc(S(=O)(=O)N2CCCCCC2)cc1 | inactive |  |
